The results in this text go back to paper PMC10411901, “FIRRM cooperates with FIGNL1 to promote RAD51 disassembly during DNA repair” (Science Advances, 2023).

Sequences of proteins named here, by UniProt entry; tags and fusion partners are left off.
UniProt Q06609: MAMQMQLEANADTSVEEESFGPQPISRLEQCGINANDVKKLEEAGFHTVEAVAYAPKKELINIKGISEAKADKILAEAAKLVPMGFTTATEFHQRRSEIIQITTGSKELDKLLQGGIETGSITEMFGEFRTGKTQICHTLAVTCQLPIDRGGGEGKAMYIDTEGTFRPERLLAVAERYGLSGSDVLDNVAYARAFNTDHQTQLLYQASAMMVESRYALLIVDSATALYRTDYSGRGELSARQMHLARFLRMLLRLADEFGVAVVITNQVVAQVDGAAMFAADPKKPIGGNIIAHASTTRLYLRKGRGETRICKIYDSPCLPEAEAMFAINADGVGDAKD

For test [1], the target named is recombinant RAD51 (UniProt Q06609). The experiment in a line: co-IP; purified recombinant proteins in pairs (RAD51 with FIGNL1 or with FIRRM); anti-RAD51 14B4 on protein A/G Sepharose; IPB buffer (20 mM KPO4 pH 7.4, 175 mM KCl, 0.5 mM EDTA, 0.5% NP-40, 10% glycerol, 1 mM DTT); room temperature; Western blot; both purified.
The target in test [2] is T1, endogenous FIRRM (human (endogenous in U2OS)) (UniProt Q9NSG2).
T1 sequence: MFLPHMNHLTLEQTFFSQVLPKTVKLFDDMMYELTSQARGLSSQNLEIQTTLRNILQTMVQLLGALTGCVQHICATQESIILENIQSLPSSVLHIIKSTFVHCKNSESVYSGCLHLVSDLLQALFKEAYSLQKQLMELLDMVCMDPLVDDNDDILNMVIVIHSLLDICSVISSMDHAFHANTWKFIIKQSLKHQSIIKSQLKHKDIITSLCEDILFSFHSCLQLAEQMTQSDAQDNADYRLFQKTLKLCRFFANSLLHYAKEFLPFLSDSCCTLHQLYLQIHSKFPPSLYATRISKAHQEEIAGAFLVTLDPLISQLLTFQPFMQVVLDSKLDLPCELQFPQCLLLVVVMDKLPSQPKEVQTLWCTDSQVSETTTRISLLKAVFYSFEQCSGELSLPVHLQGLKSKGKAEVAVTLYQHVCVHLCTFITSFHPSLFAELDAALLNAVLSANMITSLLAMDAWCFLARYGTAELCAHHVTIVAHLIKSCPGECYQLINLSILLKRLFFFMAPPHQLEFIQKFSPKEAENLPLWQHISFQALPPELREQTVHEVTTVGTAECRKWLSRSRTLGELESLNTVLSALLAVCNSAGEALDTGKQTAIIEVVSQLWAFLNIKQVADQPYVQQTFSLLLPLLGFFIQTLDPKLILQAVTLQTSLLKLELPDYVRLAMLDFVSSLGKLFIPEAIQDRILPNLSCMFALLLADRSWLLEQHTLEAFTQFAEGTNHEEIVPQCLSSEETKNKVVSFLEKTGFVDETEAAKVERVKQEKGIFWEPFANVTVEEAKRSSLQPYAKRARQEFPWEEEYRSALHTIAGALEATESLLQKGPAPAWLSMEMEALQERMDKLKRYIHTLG
The experiment in a line: co-IP; immunoprecipitation of endogenous FIRRM from U2OS cell extracts treated with benzonase; immunoblot.

Test [3] deals with T2, mCherry-LacRnls-FIRRM (human) (UniProt Q9NSG2).
T2 sequence: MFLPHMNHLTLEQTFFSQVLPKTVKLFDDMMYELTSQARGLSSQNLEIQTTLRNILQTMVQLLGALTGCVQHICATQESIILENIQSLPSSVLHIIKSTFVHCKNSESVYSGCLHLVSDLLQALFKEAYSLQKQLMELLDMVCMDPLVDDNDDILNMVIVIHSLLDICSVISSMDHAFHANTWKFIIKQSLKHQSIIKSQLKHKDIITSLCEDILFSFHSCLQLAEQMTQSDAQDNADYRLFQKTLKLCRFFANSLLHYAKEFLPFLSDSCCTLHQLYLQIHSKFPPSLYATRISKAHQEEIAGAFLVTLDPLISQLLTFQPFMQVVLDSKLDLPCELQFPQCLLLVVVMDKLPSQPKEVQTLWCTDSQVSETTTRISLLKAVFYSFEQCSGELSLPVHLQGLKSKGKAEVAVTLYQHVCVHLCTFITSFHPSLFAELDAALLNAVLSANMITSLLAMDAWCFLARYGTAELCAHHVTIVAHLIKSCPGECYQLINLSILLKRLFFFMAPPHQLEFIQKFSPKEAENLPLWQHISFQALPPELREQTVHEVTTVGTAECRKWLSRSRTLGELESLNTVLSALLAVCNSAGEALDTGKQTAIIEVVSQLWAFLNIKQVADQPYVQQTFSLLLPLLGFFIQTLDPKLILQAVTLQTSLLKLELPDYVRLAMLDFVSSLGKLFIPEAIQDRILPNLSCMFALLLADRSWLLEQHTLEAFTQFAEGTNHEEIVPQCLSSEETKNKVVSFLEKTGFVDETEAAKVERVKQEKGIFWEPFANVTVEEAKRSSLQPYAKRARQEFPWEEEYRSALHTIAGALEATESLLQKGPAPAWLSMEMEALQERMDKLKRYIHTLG
Description: LacO/LacR tethering assay (recruitment to a LacO array in cells); mCherry-LacRnls-bait transiently transfected and held at the LacO array of U2OS 2-6-5 cells; colocalization of the GFP-tagged prey at the mCherry locus quantified; FOK1 nuclease not expressed.

These are yes or no findings as the source states them, for the method shown. For part of these data: In cells and extracts the contact can be indirect. Some binding calls cover weakened binding; strength is not graded here. For part of these data: Sequences can lack the tags named with a protein.

B1: recombinant full-length FIGNL1 (natural protein, human, UniProt Q6PIW4 1-674, looked up)
chain: MQTSSSRSVHLSEWQKNYFAITSGICTGPKADAYRAQILRIQYAWANSEISQVCATKLFKKYAEKYSAIIDSDNVESGLNNYAENILTLAGSQQTDSDKWQSGLSINNVFKMSSVQKMMQAGKKFKDSLLEPALASVVIHKEATVFDLPKFSVCGSSQESDSLPNSAHDRDRTQDFPESNRLKLLQNAQPPMVTNTARTCPTFSAPVGESATAKFHVTPLFGNVKKENHSSAKENIGLNVFLSNQSCFPAACENPQRKSFYGSGTIDALSNPILNKACSKTEDNGPKEDSSLPTFKTAKEQLWVDQQKKYHQPQRASGSSYGGVKKSLGASRSRGILGKFVPPIPKQDGGEQNGGMQCKPYGAGPTEPAHPVDERLKNLEPKMIELIMNEIMDHGPPVNWEDIAGVEFAKATIKEIVVWPMLRPDIFTGLRGPPKGILLFGPPGTGKTLIGKCIASQSGATFFSISASSLTSKWVGEGEKMVRALFAVARCQQPAVIFIDEIDSLLSQRGDGEHESSRRIKTEFLVQLDGATTSSEDRILVVGATNRPQEIDEAARRRLVKRLYIPLPEASARKQIVINLMSKEQCCLSEEEIEQIVQQSDAFSGADMTQLCREASLGPIRSLQTADIATITPDQVRPIAYIDFENAFRTVRPSVSPKDLELYENWNKTFGCGK
notes: Insect cell form: modified pFastBac dual vector with an N-terminal GFP tag removable with TEV protease; source: purified from bacteria (E. coli BL21RP) or Sf9 insect cells
In the case of B1, the binding result in test [1] was “binds”.

B2: endogenous FIGNL1 (Fidgetin like 1) (protein, UniProt Q6PIW4 1-674)
chain: MQTSSSRSVHLSEWQKNYFAITSGICTGPKADAYRAQILRIQYAWANSEISQVCATKLFKKYAEKYSAIIDSDNVESGLNNYAENILTLAGSQQTDSDKWQSGLSINNVFKMSSVQKMMQAGKKFKDSLLEPALASVVIHKEATVFDLPKFSVCGSSQESDSLPNSAHDRDRTQDFPESNRLKLLQNAQPPMVTNTARTCPTFSAPVGESATAKFHVTPLFGNVKKENHSSAKENIGLNVFLSNQSCFPAACENPQRKSFYGSGTIDALSNPILNKACSKTEDNGPKEDSSLPTFKTAKEQLWVDQQKKYHQPQRASGSSYGGVKKSLGASRSRGILGKFVPPIPKQDGGEQNGGMQCKPYGAGPTEPAHPVDERLKNLEPKMIELIMNEIMDHGPPVNWEDIAGVEFAKATIKEIVVWPMLRPDIFTGLRGPPKGILLFGPPGTGKTLIGKCIASQSGATFFSISASSLTSKWVGEGEKMVRALFAVARCQQPAVIFIDEIDSLLSQRGDGEHESSRRIKTEFLVQLDGATTSSEDRILVVGATNRPQEIDEAARRRLVKRLYIPLPEASARKQIVINLMSKEQCCLSEEEIEQIVQQSDAFSGADMTQLCREASLGPIRSLQTADIATITPDQVRPIAYIDFENAFRTVRPSVSPKDLELYENWNKTFGCGK
As for B2, in test [2], the binding entry was “binds”.

B3: GFP-tagged FIGNL1 (protein, UniProt Q6PIW4 1-674)
chain: MQTSSSRSVHLSEWQKNYFAITSGICTGPKADAYRAQILRIQYAWANSEISQVCATKLFKKYAEKYSAIIDSDNVESGLNNYAENILTLAGSQQTDSDKWQSGLSINNVFKMSSVQKMMQAGKKFKDSLLEPALASVVIHKEATVFDLPKFSVCGSSQESDSLPNSAHDRDRTQDFPESNRLKLLQNAQPPMVTNTARTCPTFSAPVGESATAKFHVTPLFGNVKKENHSSAKENIGLNVFLSNQSCFPAACENPQRKSFYGSGTIDALSNPILNKACSKTEDNGPKEDSSLPTFKTAKEQLWVDQQKKYHQPQRASGSSYGGVKKSLGASRSRGILGKFVPPIPKQDGGEQNGGMQCKPYGAGPTEPAHPVDERLKNLEPKMIELIMNEIMDHGPPVNWEDIAGVEFAKATIKEIVVWPMLRPDIFTGLRGPPKGILLFGPPGTGKTLIGKCIASQSGATFFSISASSLTSKWVGEGEKMVRALFAVARCQQPAVIFIDEIDSLLSQRGDGEHESSRRIKTEFLVQLDGATTSSEDRILVVGATNRPQEIDEAARRRLVKRLYIPLPEASARKQIVINLMSKEQCCLSEEEIEQIVQQSDAFSGADMTQLCREASLGPIRSLQTADIATITPDQVRPIAYIDFENAFRTVRPSVSPKDLELYENWNKTFGCGK
As for B3, the binding entry in test [3] is given as “binds”.
